From the supplement of paper PMC10338343
± gives the standard deviation. The list shows a part of the results, in another mix than the full data.

Test system: MIWI (PIWIL1) piRISC loaded with L1MC piRNA (30 nt)
Assay: pre-steady-state target cleavage rate (min^-1); MIWI and MILI are mouse PIWI proteins and EfPiwi is from a freshwater sponge; tags in brackets are library labels; higher = faster piRNA-guided slicing of the target
Conditions: guide: L1MC piRNA 5'p-UAACUAAAUACUAUGCAAGCUGUAGGUCCU
In short: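 Cleave-'n-Seq used a transcribed, DNA-blocked target RNA library at 0.1 nM and active affinity-purified piRISC with one synthetic guide at 1 nM, with or without 500 nM GTSF1 partner protein, in HEPES–potassium acetate buffer at 33 °C for 0–8 or 0–960 min. Uncleaved targets were sequenced and normalised to depth and to weakly complementary targets, and three trials were pooled with k3 capped at 0.0001 min^-1. The pre-steady-state cleavage rate was estimated by a burst-and-steady-state fit.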

[1] = auxiliary factor: 500 nM mouse GTSF1
[2] = auxiliary factor: none (no GTSF1)

Sequence | pre-steady-state target cleavage rate [1] | pre-steady-state target cleavage rate [2]
UCGACCUACACCUUGGAUAGUAUUUAGUUA | 0.854 ± 0.076 | 0.0364 ± 0.0044
UCCUGGAUGAGCUUGCAUAGUAUAUAGUAA | 0.233 ± 0.046 | 0.00793 ± 0.0037
UCCUCCUACAGCUUGCAUAGUAUUUAGUUU [g2:g26:cont:t1U] | 1.29 ± 0.04 | 0.0826 ± 0.02
UCCUGGUUCAGCUUGCAUAGUUUUUAGUUA | 0.242 ± 0.031 | 0.0386 ± 0.0094
UCGACCUACAGCUUGCAUAGUAUCUUAGUUA | 1.06 ± 0.049 | 0.0281 ± 0.0081
UCCUGCUACAGCUUGCAAAGUAUUAAGUUA | 0.532 ± 0.042 | 0.00892 ± 0.0026
UCCUGGAUGAGCUUGCUUAGUAUUUAGUAA | 0.299 ± 0.037 | 0.0129 ± 0.0034
UCGACCUAAGCUUGCAUAGUAUUUAGUUA | 1.18 ± 0.055 | 0.0432 ± 0.009
UGGACCAACAGCUUGCAUAGUAAUUAGUUA | 0.986 ± 0.038 | 0.0398 ± 0.0096
UCCUCCUUCAGCUUGCAUUGUAUUUAGUUA | 1.02 ± 0.037 | 0.0257 ± 0.0061
UCCUGGAUGUGCUUGCAUAGUAUUUAAGUUA | 0.29 ± 0.022 | 0.0278 ± 0.0082
UGGUGCUACAGCUUGCAUAGUAUUUAGUAA | 0.607 ± 0.063 | 0.0318 ± 0.0064
UCCUCCUACUGCUUGCAUUGUAUUUAGUUA | 0.848 ± 0.025 | 0.0282 ± 0.0065
UCCUGGAACGAGCUUGCAUAGUAUUUAGUUA | 0.65 ± 0.068 | 0.0352 ± 0.0079
UCCUCCUACAGCUUGCUUAGAAUUUAGUUA | 0.274 ± 0.035 | 0.00553 ± 0.0023
AGGACCUACAGCAUGCUUAGUAUUUAGUUA | 0.977 ± 0.058 | 0.0155 ± 0.0029
UCCUGGAACAGCUGGCAUAGUAUUUAGUUA | 0.759 ± 0.038 | 0.0271 ± 0.0057
UCCACCUACAGCUUGCAUAGUAUUUAGAUUA | 0.312 ± 0.039 | 0.0172 ± 0.0039
UCCUGCUACAGCUUGCAUAGUAUUUACUAA | 0.18 ± 0.022 | 0.00613 ± 0.0031
UCCUGGAACCAGCUUGCAUAGUAUUUAGUUA | 1.11 ± 0.073 | 0.0411 ± 0.008

Sequence | pre-steady-state target cleavage rate [1] | pre-steady-state target cleavage rate [2]
UCCUGGAUGUGCUUGCAUAGUAUAUAGUAA | 0.0164 ± 0.005 | 0.00396 ± 0.0021
UCCUGGAUGACCUUGGAUAGUAUUUAGUUA | 0.232 ± 0.023 | 0.00751 ± 0.0028
UCCUGGUACAGCUUGCAUAGUAUUUAGAUA | 0.228 ± 0.038 | 0.0181 ± 0.0043
UCGACCUACAGCUUGCAUAGUUUUUAGUUA | 0.464 ± 0.021 | 0.0323 ± 0.0086
AGGACCUACAGCUUGGAUAGUAUUUAGUUA | 1.67 ± 0.052 | 0.0813 ± 0.013
UCCUGGAACGCUUGCAUAGUAUUUAGUUA | 0.919 ± 0.034 | 0.0392 ± 0.0097
UCCUCCUUGAGCUUGCAUAGUAUUUACAAA | 0.189 ± 0.034 | 0.00306 ± 0.0019
UCCUGGAACAGCUUGAUAGUAUUUAGUUA | 0.377 ± 0.032 | 0.00679 ± 0.0028
UCCUGGAUGAGAUUGCAUAGUAUUUAGUUA | 0.117 ± 0.011 | 0.00369 ± 0.0027
UCCACCUUCAGCUUGCAUAGUUUUUAGUUA | 0.271 ± 0.023 | 0.0207 ± 0.0037
AGGACCUUCAGCUUGCAUAGUUUUUAGUUA | 0.409 ± 0.022 | 0.0547 ± 0.012
UCGACCUACUGCUUGCAUAGUAUUAAGUUA | 0.588 ± 0.028 | 0.0292 ± 0.0051
UCCUGGUUCAGGUUGCAUAGUAUUUAGUUA | 0.711 ± 0.051 | 0.0138 ± 0.0041
UCCUGGUACACCUUGCAAAGUAUUUAGUUA | 0.183 ± 0.035 | 0.00933 ± 0.0023
UCCUGGAACAGCUUGCAUAGAAUUUAGUAA | 0.25 ± 0.045 | 0.014 ± 0.0044
UCCUGGAACAGCUUGCAUAGUAUUUCAGUUA | 0.231 ± 0.032 | 0.00987 ± 0.0022
UCCUGCUACAGCUUGCAUAGUAUUAUAGUUA | 0.57 ± 0.042 | 0.0153 ± 0.0033
UCCUGGAUGUCUUUGCAUAGUAUUUAGUUA | 0.094 ± 0.015 | 0.00574 ± 0.0019
UCCUGGAUCAGCCUUGCAUAGUAUUUAGUUA | 0.727 ± 0.041 | 0.0219 ± 0.0056
UCCUGGAUGUGCUAUGCAUAGUAUUUAGUUA | 0.273 ± 0.025 | 0.00862 ± 0.0031

Sequence | pre-steady-state target cleavage rate [1] | pre-steady-state target cleavage rate [2]
UCCUGGAUGUGCUUGCAUAGUAUUUAGUCUA | 0.0254 ± 0.0057 | 0.00502 ± 0.0031
UCCUCCUACAGCUUGCAUACUAAUUAGUUA | 0.191 ± 0.018 | 0.00644 ± 0.0023
AGGUCCUACAGCUUGCAUACUAUUUAGUUA | 0.371 ± 0.019 | 0.0281 ± 0.0054
UCCUGCUACAGCUUGCUUAGUAAUUAGUUA | 0.512 ± 0.041 | 0.0104 ± 0.0033
UCCUCCUACAGCUUGCAUAGUAAUUUGUUA | 0.352 ± 0.032 | 0.0121 ± 0.0032
UGGACCGUACAGCUUGCAUAGUAUUUAGUUA | 1.24 ± 0.06 | 0.064 ± 0.0096
UCCUCCUACAGCUUGCAAAGUAUAUAGUUA | 0.53 ± 0.04 | 0.00986 ± 0.0025
UCCUGGUACAGCUUGCAUAGUACUUAGUUA | 0.347 ± 0.039 | 0.0342 ± 0.0068
UCCACCUACAGCUUGCUAUGUAUUUAGUUA | 0.132 ± 0.014 | 0.00491 ± 0.0018
AGGACCUACAGCUUGCAUAGUAUUUAGUAUA | 0.879 ± 0.055 | 0.172 ± 0.054
AGGACCAUACAGCUUGCAUAGUAUUUAGUUA | 1.06 ± 0.051 | 0.0829 ± 0.013
UCCUGGAUCUGCUUGGAUAGUAUUUAGUUA | 0.533 ± 0.033 | 0.0259 ± 0.0063
UGGACGUACAGCUUGCAUAGUAUUUAGAUA | 0.38 ± 0.032 | 0.053 ± 0.011
UCCACCUACGGCUUGCAUAGUAUUUAGUUA | 0.921 ± 0.074 | 0.0494 ± 0.01
UCCACCUACAGCUUGCAUAGUUUUUUGUUA | 0.225 ± 0.026 | 0.0197 ± 0.004
UCCUGGAACAGUCUUGCAUAGUAUUUAGUUA | 0.82 ± 0.031 | 0.0422 ± 0.0092
AGGACCUACGGCUUGCAUAGUAUUUAGUUA | 1.27 ± 0.077 | 0.0872 ± 0.017
UCCACCUACAGCUUGCAUACUAUUUACUUA | 0.192 ± 0.027 | 0.0161 ± 0.0042
UCCACCUACAGCUUGCAUUGUAUAUAGUUA | 0.416 ± 0.025 | 0.0125 ± 0.0031
UCCUGGAUGAGCAUGCAUAGUAUUUAGUUA | 0.675 ± 0.047 | 0.0136 ± 0.0041
